Measured values from PubChem BioAssay AID1745845 (National Center for Advancing Translational Sciences (NCATS), 2022).
Among all 360,000 compounds or so, about 2,600 (0.72%) were called active. This list was built around the results that the source calls inconclusive (neither active nor inactive); the mix of calls is not that of the screen. The call rests on the fitted dose curve; in most records, active means well fitted inhibition curve with a large enough effect; inconclusive means small, poorly fitted or top-dose-only effect; inactive means no such curve, though single readings can be large or run the other way. Where the call is inconclusive, the potency comes from a doubtful curve fit.

assay: Primary qHTS for Inhibitors of ATXN expression; conditions: HEK-293 ATXN2-luciferase reporter, luminescence, 24 h; activity change, negative = inhibition: at 57 µM (top of the series); further: nearly all actives have a fitted effect of over 55% in size
Outline: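 ATXN2-luciferase reporter cells (luciferase flanked by upstream and downstream ATXN2 gene portions) were treated 24 h at 37 °C with compounds at up to 57 uM. SteadyGlo luminescence gave expression; GF-AFC fluorescence gave viability.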
On the % scale 0 is the no-effect control and ±100 the full control effect; potency means the concentration at half of the fitted maximal effect; tags describe the fitted curve by direction and shape.

SMILES	Potency	activity change, negative = inhibition
COc1cccc(/C=N/Nc2ccc(S(=O)(=O)O)cc2)c1O	inactive	
Cc1ccc(NC(=O)c2nc(S(=O)(=O)Cc3ccccc3C)ncc2Cl)cc1C	inconclusive: 39.8 µM [inhibitor, single point]	
CCC(C(=O)N1CCN(c2cc(C)ccc2C)CC1)n1nc(C)n2c(cc3occc32)c1=O (configuration not stated)	inconclusive: 25.1 µM [inhibitor, partial curve, poor fit]	
Cc1ccc(S(=O)(=O)N2CCc3cc(C(=O)Nc4c(F)cccc4F)ccc32)cc1	inactive	
COc1cccc(NC(=O)c2nnn(CC(=O)Nc3cc(C)cc(C)c3)c2N)c1	inconclusive: 14.1 µM [inhibitor, partial curve, poor fit]	
CCOC(=O)c1[nH]c2ccc(OC)cc2c1NC(=O)CN1CCc2ccccc2C1	inconclusive: 39.8 µM [inhibitor, single point]	
Cc1ccc(Nc2cc(C)nn2-c2nc(C)cc(C)n2)cc1	inconclusive: 31.6 µM [inhibitor, single point]	
CCOc1cc(CNc2ccccc2)cc(Br)c1OCC(=O)NC(C)(C)C	inconclusive: 22.4 µM [inhibitor, partial curve, poor fit]	
COc1ccc(CC(N)c2csc(Nc3ccccn3)n2)cc1 (configuration not stated)	inconclusive: 22.4 µM [inhibitor, partial curve, poor fit]	
Cc1cc(Cl)n2c(nc3cc(F)c(F)cc32)c1C#N	inconclusive: 37.7 µM [inhibitor, single point]	
Cc1ccc(Cl)c(NC(=O)COC(=O)c2ccccc2C(=O)c2ccc(Cl)c([N+](=O)[O-])c2)c1Cl	inconclusive: 25.1 µM [inhibitor, single point]	
Cc1ccc(C(=O)Nc2ccccc2C(=O)NCc2ccccc2)cc1	inactive	
COc1ccc(CN(CCC#N)CCC2(c3ccccc3)CC(C)N(C)CC2C)cc1OC (configuration not stated)	inconclusive: 7.08 µM [inhibitor, partial curve, poor fit]	
CC1CCCCN1S(=O)(=O)c1ccc(C(=O)Nc2nnc(-c3cccs3)o2)cc1 (configuration not stated)	inconclusive: 25.1 µM [inhibitor, partial curve]	
CCSc1ccc([C@@H]2[C@H]3C(=O)N(C)C(=O)[C@H]3[C@]3(C(=O)OC)CCCCN23)cc1	inconclusive: 39.8 µM [inhibitor, single point]	
Cc1ccc2nc(N3C(=O)CNC3=S)sc2c1	inconclusive: 39.8 µM [inhibitor, single point]	
O=[N+]([O-])c1cccc(C=NNc2ccc3ccccc3n2)c1O	inconclusive: 8.44 µM [inhibitor, single point]	
Cc1c(Cl)cccc1NC(=O)CN1CCC(C(O)(c2ccccc2)c2ccccc2)CC1	inconclusive: 14.1 µM [inhibitor, partial curve, poor fit]	
COc1ccc(CCNC(=O)COC(=O)C2CC2C)cc1 (configuration not stated)	inconclusive: 3.16 µM [inhibitor, partial curve, poor fit]	
O=c1[nH]c(SCc2ccccc2F)nc2ccccc12	inconclusive: 37.7 µM [inhibitor, single point]	
COc1cccc(C(=O)NCC(=O)N/N=C(C)\C=C\c2ccccc2)c1		inconclusive: -39.3% [inhibitor]

SMILES	Potency	activity change, negative = inhibition
CCOC(=O)CCCCC(=O)c1[nH]c(=O)[nH]c1CSc1nc2ccccc2[nH]1	inactive	
CC(C)C[C@@H](CN1CCC[C@H]1CN1C(=O)C(=O)NC[C@@H]1Cc1ccccc1)N1C[C@H](Cc2ccccc2)N(CC2CCCCCC2)C(=O)C1=O	inconclusive: 39.8 µM [inhibitor, single point]	
CCCCCCN1CCN(C2CN(CCc3ccccc3)S(=O)(=O)C2)CC1 (configuration not stated)	inactive	
CCC(CC)NC(=O)/C=C/c1cccc([N+](=O)[O-])c1	inconclusive: 1.41 µM [inhibitor, partial curve, poor fit]	
N#CCCN(Cc1ccccc1)C(CCc1ccccc1)C(=O)NC1CCCCC1 (configuration not stated)	inconclusive: 39.8 µM [inhibitor, single point]	
Cn1c(N)c(C(=O)COC(=O)c2nc(Cl)ccc2Cl)c(=O)n(C)c1=O	inactive	
CCCCc1c(-c2ccccc2OC)ncn1Cc1ccc(-c2ccccc2)cc1	active: 25.1 µM	
Nc1ccc(Cc2nc3c(ccc4ccccc43)[nH]2)cc1	inactive	
O=Nc1c2ccc[nH]c-2c2ccc([N+](=O)[O-])cc12	inconclusive: 11.2 µM [inhibitor, partial curve]	
Cc1ccc(N=C(NOCc2ccc(Cl)cc2Cl)c2nonc2N)c(C)c1	inactive	
CCOC(=O)c1cccc(Nc2cc(-c3ccccc3)ncn2)c1	inconclusive: 22.4 µM [inhibitor, single point]	
COc1ccc(-c2c3c(=O)n(C)c(=O)n(C)c3cn2C2CCCCC2)cc1	inactive	
Cc1ccc(C(C)(O)c2nc3ccccc3s2)c(C)c1 (configuration not stated)	inconclusive: 34.3 µM [inhibitor, single point]	
Oc1ccc(NCc2ccccc2OCc2ccccc2F)cc1	inconclusive: 39.8 µM [inhibitor, single point]	
Cc1ccc(-n2nc3c(=O)n(C(C)C(=O)NCCCc4ccccc4)nc(C)c3c2C)cc1 (configuration not stated)	inconclusive: 8.91 µM [inhibitor, partial curve, poor fit]	
Cc1ccc(NC(=O)C(C)n2nnc3sc4c(c3c2=O)CCCC4)cc1Cl (configuration not stated)	inactive	
O=S(=O)(NNC(=S)Nc1ccc(S(=O)(=O)Nc2ncccn2)cc1)c1ccc(Br)cc1	inactive	
COCCn1c(C)cc(C(=O)CSc2nnc3ccccn23)c1C	active: 7.08 µM	
Cc1nn(-c2ccccc2)c(C)c1NC(=O)COc1ccc(Br)cc1Cl	inconclusive: 35.5 µM [inhibitor, partial curve, poor fit]	
COc1ccc(O)c(/C=N/NC(=O)c2cccc(N3CCCC3=O)c2)c1	inconclusive: 6.31 µM [inhibitor, partial curve]	
O=C(Nc1nc(-c2ccccc2)cs1)C1CCCCN1S(=O)(=O)c1ccccc1 (configuration not stated)	inconclusive: 35.5 µM [inhibitor, single point]	
